Drawing on PMC4007762, this text covers binding for three molecules.

Chains of the proteins cited; added tags and fusions are not shown.
UniProt Q14247: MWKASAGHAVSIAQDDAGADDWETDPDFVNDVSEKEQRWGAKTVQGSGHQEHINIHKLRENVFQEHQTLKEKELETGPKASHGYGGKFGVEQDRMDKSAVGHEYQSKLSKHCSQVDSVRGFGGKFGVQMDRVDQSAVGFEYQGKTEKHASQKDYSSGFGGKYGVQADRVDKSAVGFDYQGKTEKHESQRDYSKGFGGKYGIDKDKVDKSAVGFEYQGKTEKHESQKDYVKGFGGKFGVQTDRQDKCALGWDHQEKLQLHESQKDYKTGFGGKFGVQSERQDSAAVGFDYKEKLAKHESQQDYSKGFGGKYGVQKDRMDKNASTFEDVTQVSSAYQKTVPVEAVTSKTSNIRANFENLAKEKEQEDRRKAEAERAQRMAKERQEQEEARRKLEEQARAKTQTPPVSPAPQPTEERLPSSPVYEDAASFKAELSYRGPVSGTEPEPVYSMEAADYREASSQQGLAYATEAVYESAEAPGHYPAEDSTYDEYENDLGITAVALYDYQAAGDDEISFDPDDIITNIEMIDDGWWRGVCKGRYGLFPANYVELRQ

One assay has as its target T1, YFP–p120-1A Y335F (UniProt P30999).
T1 sequence: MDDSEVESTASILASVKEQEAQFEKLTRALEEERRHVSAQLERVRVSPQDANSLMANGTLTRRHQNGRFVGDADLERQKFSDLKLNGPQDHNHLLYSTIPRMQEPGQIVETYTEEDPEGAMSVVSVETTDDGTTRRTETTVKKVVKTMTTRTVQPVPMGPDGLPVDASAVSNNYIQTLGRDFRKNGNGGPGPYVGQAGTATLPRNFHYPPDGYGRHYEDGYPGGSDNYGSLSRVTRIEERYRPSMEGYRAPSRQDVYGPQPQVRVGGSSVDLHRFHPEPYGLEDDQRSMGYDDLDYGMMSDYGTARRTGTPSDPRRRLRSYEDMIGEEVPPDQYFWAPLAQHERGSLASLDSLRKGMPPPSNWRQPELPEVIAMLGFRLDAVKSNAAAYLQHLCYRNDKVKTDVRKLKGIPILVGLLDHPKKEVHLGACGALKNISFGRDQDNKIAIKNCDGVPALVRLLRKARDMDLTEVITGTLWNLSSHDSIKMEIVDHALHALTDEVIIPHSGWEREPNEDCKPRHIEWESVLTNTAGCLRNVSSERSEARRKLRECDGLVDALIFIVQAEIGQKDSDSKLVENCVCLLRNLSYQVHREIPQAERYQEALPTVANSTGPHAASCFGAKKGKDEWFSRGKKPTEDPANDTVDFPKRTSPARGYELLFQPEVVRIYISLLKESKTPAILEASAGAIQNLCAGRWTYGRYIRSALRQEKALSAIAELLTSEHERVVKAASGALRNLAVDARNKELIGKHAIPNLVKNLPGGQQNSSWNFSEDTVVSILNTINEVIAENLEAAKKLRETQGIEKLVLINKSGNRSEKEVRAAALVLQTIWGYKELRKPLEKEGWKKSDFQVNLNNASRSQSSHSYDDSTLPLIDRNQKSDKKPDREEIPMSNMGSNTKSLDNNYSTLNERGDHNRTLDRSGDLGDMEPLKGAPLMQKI
The assay can be described thus: co-IP; YFP-tagged p120 constructs transiently expressed in HCT116-KD cells, immunoprecipitated with JL-8 in modified RIPA buffer; blots for VAV2, cortactin, E-cadherin.

For assay [1], the target named is T2, p120 catenin, endogenous (human cell lines) (human (endogenous in KM12C, HEK 293T, HCT116)) (UniProt O60716).
T2 sequence: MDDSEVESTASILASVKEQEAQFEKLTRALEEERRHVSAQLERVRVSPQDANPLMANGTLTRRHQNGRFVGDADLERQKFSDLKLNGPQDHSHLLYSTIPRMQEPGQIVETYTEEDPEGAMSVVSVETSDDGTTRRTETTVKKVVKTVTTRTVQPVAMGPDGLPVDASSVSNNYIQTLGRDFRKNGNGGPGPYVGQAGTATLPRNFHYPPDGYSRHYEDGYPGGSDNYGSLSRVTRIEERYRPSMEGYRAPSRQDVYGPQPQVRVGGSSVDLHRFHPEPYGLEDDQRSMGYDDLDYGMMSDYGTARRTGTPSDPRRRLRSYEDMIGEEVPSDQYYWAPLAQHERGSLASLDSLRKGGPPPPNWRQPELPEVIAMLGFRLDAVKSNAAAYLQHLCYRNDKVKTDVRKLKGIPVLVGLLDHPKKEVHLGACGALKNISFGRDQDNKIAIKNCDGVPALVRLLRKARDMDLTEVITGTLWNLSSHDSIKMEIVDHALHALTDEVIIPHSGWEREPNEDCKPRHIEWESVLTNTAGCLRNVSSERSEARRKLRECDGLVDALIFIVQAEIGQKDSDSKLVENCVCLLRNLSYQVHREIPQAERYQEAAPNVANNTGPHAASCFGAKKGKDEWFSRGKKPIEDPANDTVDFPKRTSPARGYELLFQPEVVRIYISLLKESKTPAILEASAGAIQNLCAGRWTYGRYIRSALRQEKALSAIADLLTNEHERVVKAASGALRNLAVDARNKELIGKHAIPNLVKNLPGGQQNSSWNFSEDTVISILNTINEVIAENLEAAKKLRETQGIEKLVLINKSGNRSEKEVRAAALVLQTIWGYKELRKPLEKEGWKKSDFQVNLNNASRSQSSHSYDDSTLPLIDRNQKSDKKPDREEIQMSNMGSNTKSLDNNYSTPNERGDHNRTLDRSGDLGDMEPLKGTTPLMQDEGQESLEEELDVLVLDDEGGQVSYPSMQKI
The assay can be described thus: co-IP; endogenous p120 immunoprecipitated with monoclonal p120 antibody from HCT116-NT and HCT116-KD cells in modified RIPA buffer; blots for VAV2, cortactin, p190 RhoGAP.

The target of assay [2] is T3, GST–PTP-PEST-C231S fusion protein (catalytically inactive trapping mutant) (UniProt Q05209).
T3 sequence: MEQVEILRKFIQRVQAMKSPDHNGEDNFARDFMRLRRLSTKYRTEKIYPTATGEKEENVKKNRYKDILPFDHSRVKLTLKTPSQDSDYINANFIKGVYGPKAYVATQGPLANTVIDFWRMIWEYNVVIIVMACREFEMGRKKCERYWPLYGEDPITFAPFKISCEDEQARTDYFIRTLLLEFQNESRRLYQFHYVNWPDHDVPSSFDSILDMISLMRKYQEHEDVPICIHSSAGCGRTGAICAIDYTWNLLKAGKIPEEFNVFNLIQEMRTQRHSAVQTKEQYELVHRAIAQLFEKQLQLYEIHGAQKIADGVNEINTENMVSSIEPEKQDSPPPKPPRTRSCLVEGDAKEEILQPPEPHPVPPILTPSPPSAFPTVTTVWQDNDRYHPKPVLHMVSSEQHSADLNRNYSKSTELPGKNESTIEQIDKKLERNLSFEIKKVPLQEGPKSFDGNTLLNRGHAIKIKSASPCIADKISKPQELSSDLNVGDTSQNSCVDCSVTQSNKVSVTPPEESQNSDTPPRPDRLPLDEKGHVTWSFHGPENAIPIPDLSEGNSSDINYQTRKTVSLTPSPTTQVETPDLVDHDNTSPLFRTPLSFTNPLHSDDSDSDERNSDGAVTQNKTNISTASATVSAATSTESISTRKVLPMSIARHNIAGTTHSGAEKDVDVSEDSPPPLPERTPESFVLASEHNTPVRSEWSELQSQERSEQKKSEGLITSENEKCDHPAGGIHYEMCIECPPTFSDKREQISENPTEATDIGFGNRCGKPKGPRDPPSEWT
The assay is described as follows: pull-down; substrate trapping: 10 µg GST fusion protein with 1 mg lysate of pervanadate-treated transfected cells (HEK 293T named for Fig. 1B and 6B), modified RIPA buffer, 4°C, 1 hour; western blot with anti-YFP; only the target purified. (In western blotting, separated proteins are transferred to a membrane and probed.)

For assay [3], the target named is T4, GST–PTP-PEST-WT fusion protein (UniProt Q05209).
T4 sequence: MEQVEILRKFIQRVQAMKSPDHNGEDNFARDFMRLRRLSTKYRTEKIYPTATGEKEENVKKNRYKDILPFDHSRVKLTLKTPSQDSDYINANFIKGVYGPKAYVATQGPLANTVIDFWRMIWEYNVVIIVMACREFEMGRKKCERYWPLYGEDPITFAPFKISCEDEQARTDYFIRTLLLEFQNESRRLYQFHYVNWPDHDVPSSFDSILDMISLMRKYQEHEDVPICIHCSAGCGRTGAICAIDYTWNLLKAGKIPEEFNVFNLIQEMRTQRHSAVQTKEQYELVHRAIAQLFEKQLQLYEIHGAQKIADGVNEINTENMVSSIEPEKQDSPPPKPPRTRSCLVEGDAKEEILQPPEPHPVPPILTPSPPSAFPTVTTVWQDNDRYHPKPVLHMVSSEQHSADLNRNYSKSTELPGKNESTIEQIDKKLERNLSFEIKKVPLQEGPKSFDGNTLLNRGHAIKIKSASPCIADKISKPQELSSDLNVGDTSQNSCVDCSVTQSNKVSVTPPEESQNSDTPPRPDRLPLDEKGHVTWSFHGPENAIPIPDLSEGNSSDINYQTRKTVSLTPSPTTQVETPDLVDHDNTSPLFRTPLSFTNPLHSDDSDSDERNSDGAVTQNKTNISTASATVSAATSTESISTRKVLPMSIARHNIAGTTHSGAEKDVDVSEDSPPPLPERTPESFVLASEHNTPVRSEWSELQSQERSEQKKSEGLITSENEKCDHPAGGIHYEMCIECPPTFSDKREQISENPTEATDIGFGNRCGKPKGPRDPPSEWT
The assay is described as follows: condition: 10 µg fusion protein per 1 mg of cell lysate; pull-down; substrate trapping: 10 µg GST fusion protein with 1 mg lysate of pervanadate-treated transfected cells (HEK 293T named for Fig. 1B and 6B), modified RIPA buffer, 4°C, 1 hour; western blot with anti-YFP; only the target purified.

The target of assay [4] is T3, GST–PTP-PEST-C231S fusion protein (catalytically inactive trapping mutant). The assay is described as follows: pull-down; substrate trapping with HEK 293T cells, endogenous proteins; data not shown; only the target purified.
Assay [5] has the same target. The assay can be described thus: pull-down; substrate trapping: 10 µg GST fusion protein with 1 mg lysate of pervanadate-treated (50 µM, 20 minutes) KM12C cells, modified RIPA buffer, 4°C, 1 hour; endogenous proteins detected by western blot; only the target purified.

Results are given in words; binding and its absence hold for the method and conditions named. In cells and extracts the contact can be indirect. Some binding calls cover weakened binding; strength is not graded here. For part of these data: Tags and fused reporters may be left off the sequences shown.

For the molecule “cortactin, endogenous (HCT116 cells) (from UniProt Q14247 1-550)”, the binding result (with YFP–p120-1A Y335F; in assay [1]) was “binds” throughout.

B1: YFP-tagged full-length p120-1A isoform (protein, UniProt P30999 1-938)
chain: MDDSEVESTASILASVKEQEAQFEKLTRALEEERRHVSAQLERVRVSPQDANSLMANGTLTRRHQNGRFVGDADLERQKFSDLKLNGPQDHNHLLYSTIPRMQEPGQIVETYTEEDPEGAMSVVSVETTDDGTTRRTETTVKKVVKTMTTRTVQPVPMGPDGLPVDASAVSNNYIQTLGRDFRKNGNGGPGPYVGQAGTATLPRNFHYPPDGYGRHYEDGYPGGSDNYGSLSRVTRIEERYRPSMEGYRAPSRQDVYGPQPQVRVGGSSVDLHRFHPEPYGLEDDQRSMGYDDLDYGMMSDYGTARRTGTPSDPRRRLRSYEDMIGEEVPPDQYYWAPLAQHERGSLASLDSLRKGMPPPSNWRQPELPEVIAMLGFRLDAVKSNAAAYLQHLCYRNDKVKTDVRKLKGIPILVGLLDHPKKEVHLGACGALKNISFGRDQDNKIAIKNCDGVPALVRLLRKARDMDLTEVITGTLWNLSSHDSIKMEIVDHALHALTDEVIIPHSGWEREPNEDCKPRHIEWESVLTNTAGCLRNVSSERSEARRKLRECDGLVDALIFIVQAEIGQKDSDSKLVENCVCLLRNLSYQVHREIPQAERYQEALPTVANSTGPHAASCFGAKKGKDEWFSRGKKPTEDPANDTVDFPKRTSPARGYELLFQPEVVRIYISLLKESKTPAILEASAGAIQNLCAGRWTYGRYIRSALRQEKALSAIAELLTSEHERVVKAASGALRNLAVDARNKELIGKHAIPNLVKNLPGGQQNSSWNFSEDTVVSILNTINEVIAENLEAAKKLRETQGIEKLVLINKSGNRSEKEVRAAALVLQTIWGYKELRKPLEKEGWKKSDFQVNLNNASRSQSSHSYDDSTLPLIDRNQKSDKKPDREEIPMSNMGSNTKSLDNNYSTLNERGDHNRTLDRSGDLGDMEPLKGAPLMQKI
Consider B1, for which the binding entry in assay [2] is listed as “binds”; in assay [3], “no binding”.

B2: p120 catenin, endogenous (human cell lines) (protein, UniProt O60716 1-968)
chain: MDDSEVESTASILASVKEQEAQFEKLTRALEEERRHVSAQLERVRVSPQDANPLMANGTLTRRHQNGRFVGDADLERQKFSDLKLNGPQDHSHLLYSTIPRMQEPGQIVETYTEEDPEGAMSVVSVETSDDGTTRRTETTVKKVVKTVTTRTVQPVAMGPDGLPVDASSVSNNYIQTLGRDFRKNGNGGPGPYVGQAGTATLPRNFHYPPDGYSRHYEDGYPGGSDNYGSLSRVTRIEERYRPSMEGYRAPSRQDVYGPQPQVRVGGSSVDLHRFHPEPYGLEDDQRSMGYDDLDYGMMSDYGTARRTGTPSDPRRRLRSYEDMIGEEVPSDQYYWAPLAQHERGSLASLDSLRKGGPPPPNWRQPELPEVIAMLGFRLDAVKSNAAAYLQHLCYRNDKVKTDVRKLKGIPVLVGLLDHPKKEVHLGACGALKNISFGRDQDNKIAIKNCDGVPALVRLLRKARDMDLTEVITGTLWNLSSHDSIKMEIVDHALHALTDEVIIPHSGWEREPNEDCKPRHIEWESVLTNTAGCLRNVSSERSEARRKLRECDGLVDALIFIVQAEIGQKDSDSKLVENCVCLLRNLSYQVHREIPQAERYQEAAPNVANNTGPHAASCFGAKKGKDEWFSRGKKPIEDPANDTVDFPKRTSPARGYELLFQPEVVRIYISLLKESKTPAILEASAGAIQNLCAGRWTYGRYIRSALRQEKALSAIADLLTNEHERVVKAASGALRNLAVDARNKELIGKHAIPNLVKNLPGGQQNSSWNFSEDTVISILNTINEVIAENLEAAKKLRETQGIEKLVLINKSGNRSEKEVRAAALVLQTIWGYKELRKPLEKEGWKKSDFQVNLNNASRSQSSHSYDDSTLPLIDRNQKSDKKPDREEIQMSNMGSNTKSLDNNYSTPNERGDHNRTLDRSGDLGDMEPLKGTTPLMQDEGQESLEEELDVLVLDDEGGQVSYPSMQKI
As to B2, the binding entry in assay [4] and in assay [5] was “binds” each time.
